Measured values: PubChem BioAssay AID2147 (National Center for Advancing Translational Sciences (NCATS), 2009)
In all, about 230,000 compounds went through this assay and about 3,600 (1.6%) were called active. The shares of active, inactive and inconclusive entries below differ from those in the screen. Calls follow the shape of the dose curve; as a rule, active = well fitted inhibition curve with a large enough effect (not every such curve was filed as active); inconclusive = small, poorly fitted or top-dose-only effect, or another doubt; inactive = no such curve, though single readings can be large or run the other way. Potencies beside an inconclusive call are fits to weak or partial responses and may not hold up.
Also: nearly all actives have a fitted effect of over 50% in size.
Potency is read from the fitted curve at half-maximal effect; tags tell the direction and shape of the fitted curve.

What follows are molecules tested against Lysine-specific demethylase 4E (Homo sapiens) (UniProt B2RXH2) (assay: qHTS Assay for Inhibitors of Human Jumonji Domain Containing 2E (JMJD2E)). Details: JMJD2E catalytic domain, FDH-coupled NADH fluorescence (FDH is formaldehyde dehydrogenase); series mostly up to 57.1 µM.
UniProt B2RXH2, sequence (B2RXH2 whole entry, looked up, the tested form may be a part): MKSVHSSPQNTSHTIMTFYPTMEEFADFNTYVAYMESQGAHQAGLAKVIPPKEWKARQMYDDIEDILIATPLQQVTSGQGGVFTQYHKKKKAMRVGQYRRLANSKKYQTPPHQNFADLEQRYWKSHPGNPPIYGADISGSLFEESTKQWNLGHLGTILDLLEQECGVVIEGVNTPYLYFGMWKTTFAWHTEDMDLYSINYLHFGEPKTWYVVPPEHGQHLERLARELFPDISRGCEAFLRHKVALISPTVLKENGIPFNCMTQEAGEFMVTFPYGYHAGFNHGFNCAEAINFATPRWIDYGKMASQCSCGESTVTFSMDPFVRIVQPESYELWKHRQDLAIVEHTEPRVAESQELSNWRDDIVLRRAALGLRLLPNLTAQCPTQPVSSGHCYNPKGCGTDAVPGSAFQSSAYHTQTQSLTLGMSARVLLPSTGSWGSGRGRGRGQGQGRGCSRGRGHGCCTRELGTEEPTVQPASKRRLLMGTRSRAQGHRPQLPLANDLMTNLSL
Source text: Assay Provider: Structural Genomics Consortium [SGC] Screening Center PI: Austin, C.P. Screening Center: NIH Chemical Genomics Center [NCGC] The fine interplay among methylation states of several lysine residues on the tails of histone proteins is a major determinant of the transcriptional state of the associated DNA coding regions and is commonly referred to as the histone code. Histone lysine demethylases catalyze the removal of methyl groups from methylated lysine sidechains on histones H3 and H4, thus antagonizing the reactions catalyzed by histone lysine methyltransferases. […] In search for novel inhibitors of JMJD2E demethylase, a member of the largest set of histone demethylases belonging to the Fe(II) and 2-oxoglutarate oxygenase (2OG) superfamily, we performed a quantitative high-throughput screen (Inglese 2006) by using an assay which utilizes a trimethylated peptide substrate corresponding to a fragment of histone H3 (sequence ARKme3STGGK) with detection of the formaldehyde co-product in real time by a formaldehyde dehydrogenase (FDH) coupled reaction. FDH catalyzes oxidation of formaldehyde to formic acid with the concomitant reduction of the non-fluorescent beta-nicotinamide adenine dinucleotide hydrate (NAD+) cofactor to the fluorescent NADH co-product. References: Inglese, J., Auld, D., Jadhav, A., Johnson, R., Simeonov, A., Yasgar, A., Zheng, W. and Austin, C. Proc Natl Acad Sci USA 2006, 103, 11473-11478. N. R. Rose, S. S. Ng, J. Mecinovic, B. M. Lienard, S. H. Bello, Z. Sun, M. A. McDonough, U. Oppermann and C. […]
Reagents and Controls: Ferrous ammonium sulfate, (+)-sodium L-ascorbate, beta-nicotinamide adenine dinucleotide hydrate (NAD+), Tween-20, formaldehyde dehydrogenase from P. putida (FDH), and disodium 2-oxoglutarate were from Sigma (St. Louis, MO). […] The plate was transferred to ViewLux imager where an initial reading using standard UV optics (Ex 340 nm, Em 450 nm) was obtained. The plate was then removed from the reader, incubated for 30 minutes at room temperature, and returned to the reader for a second fluorescence reading. […]
For `CC(C)(C)c1ccc2c(c1)OC(C(=O)N/N=C\c1ccc(-c3cccc(C(=O)O)c3)o1)CO2` (stereo not drawn), the Potency was inconclusive: 25.1 µM [inhibitor, partial curve].
In the case of `CCc1nnc(NS(=O)(=O)c2ccc(N/C=C(\C=O)c3nc4cc(Cl)ccc4o3)cc2)s1`, the Potency is reported as inconclusive: 35.5 µM [inhibitor, single point].
`CC(C)(C)CC(C)(C)c1ccc(OCC(=O)N/N=C/c2ccc(S(=O)(=O)O)o2)cc1` was tested, and the Potency was inconclusive: 31.6 µM [inhibitor, single point].
